# Data reported in PubChem BioAssay AID1345082 (National Center for Advancing Translational Sciences (NCATS), 2018).
# Screen size: about 94,000 compounds; about 4,000 (4.3%) were called active. Inconclusive results, whose numbers are uncertain, are shown with a selection of clear calls. Calls come from the whole dose curve; as a rule, active = well fitted inhibition curve with a large enough effect; inconclusive = small, poorly fitted or top-dose-only effect; inactive = no such curve, though single readings can be large or run the other way. Potencies beside an inconclusive call are fits to weak or partial responses and may not hold up.
# Assay: Cytotoxic Profiling in NIH 3T3 Cell Line of Diverse Libraries Using Quantitative High-Throughput Screening; note: nearly all actives have a fitted effect of over 55% in size
# Conditions: NIH 3T3 viability, CellTiter-Glo ATP luminescence, 48-72 h; series mostly up to 96.7 µM
# In short: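 Cytotoxicity is measured as loss of cellular ATP: NIH 3T3 cells (400/well) are exposed to compound for 48 or 72 hr at 37 °C, then CellTiter-Glo luminescence is imaged after 10 min at room temperature.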
# Potency is the fitted concentration of half-maximal effect; tags give direction and shape of the fitted curve.
row,Structure (SMILES),Potency
1,Cn1cccc1-c1noc(C2CCN(C(=O)CCc3ccccc3)CC2)n1,"inconclusive: 44.7 µM [inhibitor, partial curve]"
2,Clc1ccc(C2Cn3nnc(-c4noc(C5CCCC5)n4)c3CO2)cc1 (configuration not stated),inactive
3,Cc1ccc(Nc2ccnc(N3CCC(NC(=O)c4cccc(Cl)c4)CC3)n2)cc1,active: 39.8 µM
4,c1ccc(C2=NOC3(CCCN(CC4CCCCC4)C3)C2)cc1 (configuration not stated),"inconclusive: 79.4 µM [inhibitor, partial curve]"
5,CNC(=O)Nc1ccc(C2(C(=O)Nc3ccc4c(c3)CCC4)CCC2)cc1,"inconclusive: 50.1 µM [inhibitor, partial curve, poor fit]"
6,COc1cccc(CC(=O)NCCC2CCN(C(=O)Nc3cc(F)cc(F)c3)CC2)c1,"inconclusive: 44.7 µM [inhibitor, partial curve, poor fit]"
7,Cc1c(-c2cc(C(=O)N3CCC(=O)N(CC4CC4)C(C(C)C)C3)no2)cnn1C (configuration not stated),inactive
8,O=C(NCCc1ccccc1F)C1CCc2nnc(-c3ccc(F)cc3)n21 (configuration not stated),inactive
9,Cc1[nH]c2c(C)ccc(C)c2c1CC(=O)N1Cc2ccccc2C(O)C1 (configuration not stated),inactive
10,CC(=O)N1CCC(N2C(=O)C3(CCCC3)C2c2scnc2C)CC1 (configuration not stated),"inconclusive: 56.2 µM [inhibitor, partial curve, poor fit]"
11,O=C(Cc1c[nH]c2ccccc12)NCc1cccnc1N1CCOCC1,inactive
12,COc1ccc(-c2ncc3c(n2)OCCN(Cc2ccccc2)C3=O)cn1,active: 35.5 µM
13,COc1ccc(C(=O)N2CCc3nc(C)nc(-c4ccc(OC)cc4)c3CC2)cc1,"inconclusive: 56.2 µM [inhibitor, partial curve, poor fit]"
14,O=C1c2c(nc(COc3ccc(F)cc3F)n2Cc2ccccc2)NCCN1Cc1ccccc1F,"inconclusive: 14.1 µM [inhibitor, full curve]"
15,Cc1cnc(C)c(-c2cc(O)c3c(c2)CN(C(=O)c2cc(C)[nH]n2)CCO3)n1,inactive
16,O=C(Nc1cccc(Cl)c1F)N1CCC(OC2CCN(Cc3ccccc3)CC2)CC1,"inconclusive: 44.7 µM [inhibitor, partial curve, poor fit]"
17,N#Cc1cccc(C(=O)N2CCN(C(=O)c3nnn4c3COC(c3ccccc3)C4)CC2)c1 (configuration not stated),"inconclusive: 50.1 µM [inhibitor, partial curve, poor fit]"
18,Cc1cccc(C(=O)N2CCC3(CC2)c2[nH]c4ccccc4c2CCN3C)c1,inactive
19,CC1=C[C@@H](CNS(C)(=O)=O)[C@H](C(C)C)C[C@H]1Cc1nc2ccc(Cl)cc2[nH]1,"inconclusive: 100 µM [inhibitor, partial curve, poor fit]"
20,COc1ccc(-c2cc(N3CCCC(NC(=O)C4CCCC4)C3)n[nH]2)cc1 (configuration not stated),"inconclusive: 44.7 µM [inhibitor, partial curve, poor fit]"
21,O=C(Nc1ccccc1)N1CCC(Oc2ccccc2-c2nc(-c3ccccc3)no2)C1 (configuration not stated),active: 31.6 µM

row,Structure (SMILES),Potency
1,Cc1ccc(Cn2cc(-c3ccncc3)cc2C(=O)N(C)Cc2ccccc2)cc1,"inconclusive: 44.7 µM [inhibitor, partial curve, poor fit]"
2,CNC(=O)c1cc(C2CC2)nc2onc(C3CCN(C(=O)c4ccc(F)cc4)C3)c12 (configuration not stated),inactive
3,CCCCNC(=O)CC(c1cccc([N+](=O)[O-])c1)c1c[nH]c2ccccc12 (configuration not stated),"inconclusive: 50.1 µM [inhibitor, partial curve, poor fit]"
4,N#Cc1cccc(CN2CCCCCNC(=O)[C@@H]3CCC[C@@H]32)c1,inactive
5,CC1(c2noc(C3CC3)n2)CCN(C(=O)CCc2cc(Cl)no2)CC1,"inconclusive: 70.8 µM [inhibitor, single point]"
6,CCn1cc(S(=O)(=O)N2CC(c3nc(CCOc4cccc(C)c4)no3)C2)cn1,"inconclusive: 39.8 µM [inhibitor, partial curve, poor fit]"
7,O=c1ccc(N2CCC(NS(=O)(=O)c3ccccc3Cl)CC2)nn1CC1CC1,"inconclusive: 56.2 µM [inhibitor, partial curve, poor fit]"
8,COc1ccc(-c2cccc(CCOc3cnc4c(ccn4CC(=O)O)c3)c2)c(F)c1,"inconclusive: 112 µM [inhibitor, single point]"
9,COCCNC(=O)C[C@@H]1C[C@@H](C(C)C)[C@H](CNS(=O)(=O)c2ccc(OC)cc2)C=C1C,"inconclusive: 50.1 µM [inhibitor, partial curve, poor fit]"
10,O=S(=O)(N[C@H]1CO[C@H]2[C@@H]1OC[C@@H]2n1nnnc1-c1ccccc1)c1cccc2cccnc12,inactive
11,O=C(NC1CCN(c2cc(-c3ccccc3)[nH]n2)CC1)c1cc2ccccc2[nH]1,inactive
12,O=C1CO[C@H]2CCN(Cc3ccccc3)CC[C@@H]2N1CCc1cccnc1,inactive
13,O=C(NC1CCN(Cc2ccccc2)CC1)c1nnn2c1COC(c1ccc(F)cc1)C2 (configuration not stated),"inconclusive: 28.2 µM [inhibitor, partial curve, poor fit]"
14,CC(C)C(=O)N1CCC(Oc2ccc3c(cnn3CCC(=O)O)c2)CC1,"inconclusive: 89.1 µM [inhibitor, partial curve, poor fit]"
15,Cc1ccc(NC(=O)Cn2c(N3CCCCC3)nc(C)c(C)c2=O)cc1C,"inconclusive: 44.7 µM [inhibitor, partial curve, poor fit]"
16,Cc1noc(-c2ccco2)c1C(=O)N(C)Cc1ccccc1,inactive
17,COCc1cc(=O)n(CC(=O)Nc2cccc(SC)c2)c(N2CCOCC2)n1,inactive
18,O=C(O)c1cnc(N2CCCCC2)nc1-c1ccncc1,"inconclusive: 70.8 µM [inhibitor, single point]"
19,COc1ccc(-c2ccc(NC(=O)c3ccc(F)cc3)cc2)nn1,inactive
20,CCCNC(=O)c1coc(COc2ccc3c(c2)C(c2cccc(C)c2)N(C(=O)C2CC2)CC3)n1 (configuration not stated),"inconclusive: 15.8 µM [inhibitor, full curve, poor fit]"
21,CCc1cccc2c(C(CC(=O)NCc3ccco3)c3ccc(C)cc3)c[nH]c12 (configuration not stated),"inconclusive: 50.1 µM [inhibitor, partial curve, poor fit]"
